The full ranking holds about 110,000 compounds; the median of “z-score” is about -0.1, and the highest 2% start at about 2. The list shows a part of the results.
Each molecule was assayed against Metabotropic glutamate receptor 8 (Rattus norvegicus) (UniProt P70579) (assay: rat mGluR8 modulators via GIRK flux, primary screen, cell-based, thallium flux, HTS (AID 488969)). Conditions: HEK293 rat mGluR8, GIRK (G protein-gated inwardly rectifying potassium channel) thallium flux, FluoZin2; at 10 µM; stronger effect = higher value.
UniProt P70579, sequence (P70579 whole entry, looked up): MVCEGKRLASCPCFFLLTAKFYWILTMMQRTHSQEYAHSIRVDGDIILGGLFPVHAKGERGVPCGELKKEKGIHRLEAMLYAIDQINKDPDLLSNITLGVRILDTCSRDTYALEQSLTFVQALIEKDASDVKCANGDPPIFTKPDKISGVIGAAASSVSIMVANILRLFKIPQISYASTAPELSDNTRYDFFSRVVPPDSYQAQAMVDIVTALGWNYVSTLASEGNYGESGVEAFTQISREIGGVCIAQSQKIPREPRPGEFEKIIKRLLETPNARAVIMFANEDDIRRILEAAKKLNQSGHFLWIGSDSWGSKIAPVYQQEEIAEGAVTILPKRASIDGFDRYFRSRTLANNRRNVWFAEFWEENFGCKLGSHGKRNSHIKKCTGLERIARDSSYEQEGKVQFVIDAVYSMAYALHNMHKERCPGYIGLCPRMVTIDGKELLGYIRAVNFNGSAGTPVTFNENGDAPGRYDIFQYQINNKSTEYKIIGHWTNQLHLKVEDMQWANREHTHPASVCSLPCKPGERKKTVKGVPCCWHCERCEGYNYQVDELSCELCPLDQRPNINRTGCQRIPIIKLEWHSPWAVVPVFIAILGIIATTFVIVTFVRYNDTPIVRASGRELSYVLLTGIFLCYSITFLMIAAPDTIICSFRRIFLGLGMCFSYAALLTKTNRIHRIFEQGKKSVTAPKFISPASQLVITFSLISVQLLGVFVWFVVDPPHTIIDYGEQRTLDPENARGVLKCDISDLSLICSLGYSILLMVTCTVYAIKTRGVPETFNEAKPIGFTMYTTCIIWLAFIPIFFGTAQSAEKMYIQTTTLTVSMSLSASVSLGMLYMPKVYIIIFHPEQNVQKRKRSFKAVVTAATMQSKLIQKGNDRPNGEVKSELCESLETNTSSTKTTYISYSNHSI

| Compound | z-score |
| --- | --- |
| Cc1ccc2c(c1)CC1(CN2C)C(=O)NC(=O)N(c2cc(C)ccc2C)C1=O (configuration not stated) | -0.3 |
| O=c1[nH]c2c(c(=O)n1C1CCCCC1)CCC2 | 0.316 |
| Cc1cc(OCC(=O)OC(C)C)c2c3c(c(=O)oc2c1)CCCC3 | -0.538 |
| CCCCCSc1cc(OC)c(CCN(C)C)cc1OC | 1.47 |
| Cc1cc(Oc2ccc(C(F)(F)F)cc2[N+](=O)[O-])c2c3c(c(=O)oc2c1)CCCC3 | -0.256 |
| CC(C)CC1C(C#N)=C(N)Oc2c1c(=O)oc1ccccc21 (configuration not stated) | -0.0513 |
| Cn1c(=O)c2c(nc(N/N=C/c3c(O)n(-c4ccccc4)c(=S)[nH]c3=O)n2C)n(C)c1=O | -0.117 |
| CC1(C)NCCN2C(=O)CSC21 (configuration not stated) | 0.0385 |
| O=C(CN1CCOCC1)c1cccc2ccccc12 | -0.17 |
| CCOc1ccc(NC(=O)c2ccc(NC(=O)COC(=O)Cc3ccccc3)cc2)cc1 | -0.0952 |
| CC(C)CN(CC(C)C)c1ccc(C=C2C(=O)NC(=S)NC2=O)cc1[N+](=O)[O-] | 2.35 |
| N=C(N)c1c(O)n(C2CCCCC2)c(=O)n(C2CCCCC2)c1=O | -0.146 |
| CCC(=Nc1ccc(OC)cc1OC)c1c(O)n(C2CCCCC2)c(=O)[nH]c1=O | -0.386 |
| O=c1c2ccccc2nc(-c2ccco2)n1-c1nccs1 | -0.154 |
| CC(C)OC12Oc3ccccc3C=C1N1CCC2CC1 (configuration not stated) | 1.77 |
| N#Cc1ccccc1Cn1cc(C(=O)c2ccco2)c2ccccc21 | -0.818 |
| Clc1cccc(CN2CCCCC2c2cccnc2)c1 (configuration not stated) | -0.113 |
| O=C(COC(=O)c1cccc(O)c1)Nc1ccc(Cl)cc1C(=O)c1ccccc1 | -0.689 |
| CN(C)C(=O)On1c(-c2ccccc2)nc2ccc(Cl)cc21 | -0.0178 |
| CC[N+]12CCC(CC1)C(=C(c1ccccc1)c1ccccc1)C2 | 0.015 |
| COc1nc2ccccc2c(=O)n1-c1ccc(C)cc1 | -0.0243 |
| Cc1ccccc1C1=NCC(=O)N(CC(=O)NCc2ccco2)c2sc3c(c21)CCCC3 | -1.01 |
| CC(C)(C)P(=O)(c1ccncc1)N1CCCC1 (configuration not stated) | 0.609 |
| CN1c2ccccc2Oc2ccccc21 | 0.102 |

| Compound | z-score |
| --- | --- |
| CSc1ncc(/C=C2/C(=O)NC(=O)N(C)C2=O)cn1 | -0.494 |
| COc1cccc(-n2c(CN3CCN(C)CC3)nc3ccc([N+](=O)[O-])cc3c2=O)c1 | 0.000822 |
| O=P(NCc1ccccc1)(Oc1ccccc1)Oc1ccccc1 | 0.167 |
| CN1CCN(Cc2nc3ccccc3c(=O)[nH]2)CC1 | 0.227 |
| CC1(C)COC(Nc2cccc(Cl)c2)=N1 | -0.099 |
| Cc1ccc(-c2nc3ccccc3c(=O)n2-c2ccccn2)cc1 | 0.803 |
| Cc1c(N=Cc2c(O)n(Cc3ccc(F)cc3)c(=O)[nH]c2=O)c(=O)n(-c2ccccc2)n1C | -0.0628 |
| COCCOC(=O)c1c(C)n(C)c2ccc(OC(=O)N(C)C)cc12 | -0.166 |
| CN1C(=O)C(C2(C#N)CCCCC2)C(=O)N(C)C1=O | 0.28 |
| CCC(=NCCCN(C)C)c1c(O)n(-c2ccc(OC)cc2)c(=O)[nH]c1=O | -0.142 |
| O=c1[nH]c(=O)n(Cc2ccco2)c(O)c1/C=N/N1CCCCCC1 | -0.29 |
| Cc1sc2nc(COC(=O)Cc3ccccc3)[nH]c(=O)c2c1C | -0.211 |
| Cc1ccccc1-n1c(O)c(C=NCCN2CCOCC2)c(=O)[nH]c1=O | 0.0309 |
| Cc1cccc(-n2c(-c3cccs3)nc3ccccc3c2=O)c1 | 0.057 |
| Cn1c(O)c(C(c2ccccn2)c2c(O)n(C)c(=S)n(C)c2=O)c(=O)n(C)c1=S | -0.286 |
| CCCCCCn1c(O)c(C(C)=NC)c(=O)[nH]c1=O | 0.0549 |
| CCC(=O)Nc1ccc(N2CCN(CC)CC2)c(Cl)c1 | -0.0635 |
| CC(=O)N1CCN(c2ccc([N+](=O)[O-])cc2C=C2C(=O)NC(=O)NC2=O)CC1 | -0.975 |
| CCn1cc(C(=O)c2cccs2)c2ccccc21 | -1.08 |
| Fc1ccc(CNCCc2ccccc2F)cc1 | 0.667 |
| CCN1CCN(S(=O)(=O)c2cnc(Cl)c(Br)c2)CC1 | 0.452 |
| Cc1ccc(N2C(=O)NC(=O)/C(=C\c3ccc(N4CCOCC4)cc3)C2=O)cc1 | -0.0394 |
| O=c1[nH]c(=O)n(Cc2ccccc2)c(O)c1C=NCCN1CCNCC1 | 0.607 |
| Cc1cc(Cl)ccc1OCCCC(=O)NCc1cccs1 | 1.35 |

| Compound | z-score |
| --- | --- |
| CCC(=NCc1cc(OC)cc(OC)c1)c1c(O)n(C)c(=O)n(C)c1=O | -0.377 |
| O=C(NC(=C(Cl)Cl)P(=O)(c1ccccc1)c1ccccc1)c1ccccc1 | -0.29 |
| CC1CCCN(C(=O)CCl)C1 (configuration not stated) | -0.18 |
| CCOC(=O)C(O)(c1ccc(NC(=O)Oc2ccccc2)cc1)C(F)(F)F (configuration not stated) | 0.272 |
| CC(=O)NC(C)Cc1ccccc1 (configuration not stated) | 0.13 |
| O=C(O)c1ccc(Cl)nc1 | -0.197 |
| O=c1[nH]c(=O)n(Cc2ccco2)c(O)c1/C=N/N1CCCCC1 | -0.142 |
| COc1ccc(N2C(=O)NC(=O)C(CCc3ccncc3)(CCc3ccncc3)C2=O)cc1 | -0.651 |
| COc1ccc(NC(=O)c2c(C)nn(Cc3ccccc3Cl)c2Cl)cc1Cl | 0.0244 |
| CC1CCC(NCC(O)c2ccccc2)CC1 (configuration not stated) | 0.108 |
| CC[n+]1c(/C=C/N(C)c2ccccc2)sc2ccc(Cl)cc21 | 0.47 |
| CC(Cc1ccccc1)NC(=O)/C=C/c1ccc(Cl)cc1 (configuration not stated) | -0.151 |
| Cc1nc2nc(SCC(=O)N3CCC4(CC3)OCCO4)nn2c(C)c1Cc1ccccc1 | -0.882 |
| CN(C=O)CP(=O)(O)CN(C)C=O | 0.0217 |
| CCN1CCN(C(=O)COc2ccc(S(=O)(=O)N(C)Cc3ccccc3)cc2)CC1 | 0.0709 |
| O=C1NC(=O)N(Cc2ccccc2)C(=O)/C1=C/N1CCCc2ccccc21 | -0.761 |
| CC(=O)c1c(C)n(C(C)C)c2ccc(O)cc12 | -0.0157 |
| Cn1c(O)c(C=NC2CC(C)(C)NC(C)(C)C2)c(=O)n(C)c1=O | -0.112 |
| Cc1sc2c(c1C)C(c1ccc(C(C)(C)C)cc1)=NCC(=O)N2CC(=O)Nc1nccs1 | -1.06 |
| CN1C(=O)C(=Cc2ccccc2OCc2ccc(Cl)cc2)C(=O)N(C)C1=O | -0.415 |
| CC1=NN(c2ccccc2)C(=O)C1/C=C1/C(=O)NC(=O)N(c2cccc(C)c2)C1=O (configuration not stated) | -0.395 |
| CN(C)S(=O)(=O)c1cc(NC(=O)C[N+]23CCN(CC2)CC3)ccc1Cl | -0.0344 |
| CN1CCN(c2ccc([N+](=O)[O-])c(N/N=C3\CN4CCC3CC4)c2)CC1 | -0.0741 |
| Cc1cc(C)n2nc(C)[n+](C)c2n1 | -0.472 |

From PubChem BioAssay AID488969 (Vanderbilt High Throughput Screening Facility, 2010)
